Measurements published in US20180327494A1 (SUZHOU ALPHAMAB, published 2018).
Residue numbers refer to the chain shown, from its start. Values belong to the binder of their own block, whether it stands above or below them.

Assays:
[1] = target: T1, human PDL1 protein on the cell membrane (human, UniProt Q9NZQ7); test: flow cytometry competition: 293 cells expressing PDL1 on the membrane, PD1-muFc 2 µg/ml (blocked ligand), PE goat anti-mouse antibody, MFI, four-parameter fit; the sheet labels it EC50, the text calls it IC50; unit from the axis
T1 construct: whole, on cells; also used here for Raji-PDL1 cells and for native PDL1 on lung cancer tissue sections; also called Raji-PDL1
T1 sequence (Q9NZQ7 19-290): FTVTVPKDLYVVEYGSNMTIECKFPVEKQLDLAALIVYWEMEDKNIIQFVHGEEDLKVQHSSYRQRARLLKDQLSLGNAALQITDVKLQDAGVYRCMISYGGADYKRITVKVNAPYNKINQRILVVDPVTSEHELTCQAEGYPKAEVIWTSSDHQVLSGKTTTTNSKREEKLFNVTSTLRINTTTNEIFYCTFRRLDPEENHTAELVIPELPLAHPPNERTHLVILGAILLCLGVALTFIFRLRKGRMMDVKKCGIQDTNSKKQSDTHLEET

biotinylated PDL1-muFc = target: T2, biotinylated PDL1-muFc (human, biotinylated (sites not given)); test: flow cytometry competition: Jurkat-PD1 cells incubated with biotinylated PDL1-muFc 30 µg/ml, then dilution series of the Fc fusion protein, Streptavidin PE, MFI; the blocked partner is human PD1 on the Jurkat cells; the sheet labels it EC50, the text calls it IC50; unit from the axis
Sequence of biotinylated PDL1-muFc (chain, as listed by the source limits assumed): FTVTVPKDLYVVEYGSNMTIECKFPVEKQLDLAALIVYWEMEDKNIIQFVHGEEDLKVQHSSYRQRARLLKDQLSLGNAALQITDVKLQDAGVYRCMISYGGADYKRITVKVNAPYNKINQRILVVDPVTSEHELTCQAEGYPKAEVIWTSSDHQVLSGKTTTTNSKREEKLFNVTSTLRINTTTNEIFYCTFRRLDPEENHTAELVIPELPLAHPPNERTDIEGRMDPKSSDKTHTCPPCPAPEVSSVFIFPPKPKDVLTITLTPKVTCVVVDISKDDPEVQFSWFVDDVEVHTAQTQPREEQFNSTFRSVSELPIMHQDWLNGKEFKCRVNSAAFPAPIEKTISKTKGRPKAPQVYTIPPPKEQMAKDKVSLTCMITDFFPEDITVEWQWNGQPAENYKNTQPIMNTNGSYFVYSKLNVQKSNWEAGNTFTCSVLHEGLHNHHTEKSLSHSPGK
T2 construct: PDL1 fused to a mouse Fc; also called human PDL1-muFc; soluble PDL1-muFc protein

[2] = target: Human FcRn protein (RnD Systems Cat. No. 8639-FC) (human, UniProt P55899 fragment; P61769 fragment); test: BLI, Octet K2, biotinylated Fc fusion on SA biosensor, FcRn 12.5-200 nM
[3] = target: T3, human B7H3-EGFP on HEK293 cells (human, UniProt Q5ZPR3 29-534); test: flow cytometry dot plots: 293 cells transfected with B7H3-EGFP, hu56V2-Fc, anti-hIg-PE
T3 construct: whole, on cells; not shown: EGFP protein fused to the C-terminus
T3 sequence (looked up): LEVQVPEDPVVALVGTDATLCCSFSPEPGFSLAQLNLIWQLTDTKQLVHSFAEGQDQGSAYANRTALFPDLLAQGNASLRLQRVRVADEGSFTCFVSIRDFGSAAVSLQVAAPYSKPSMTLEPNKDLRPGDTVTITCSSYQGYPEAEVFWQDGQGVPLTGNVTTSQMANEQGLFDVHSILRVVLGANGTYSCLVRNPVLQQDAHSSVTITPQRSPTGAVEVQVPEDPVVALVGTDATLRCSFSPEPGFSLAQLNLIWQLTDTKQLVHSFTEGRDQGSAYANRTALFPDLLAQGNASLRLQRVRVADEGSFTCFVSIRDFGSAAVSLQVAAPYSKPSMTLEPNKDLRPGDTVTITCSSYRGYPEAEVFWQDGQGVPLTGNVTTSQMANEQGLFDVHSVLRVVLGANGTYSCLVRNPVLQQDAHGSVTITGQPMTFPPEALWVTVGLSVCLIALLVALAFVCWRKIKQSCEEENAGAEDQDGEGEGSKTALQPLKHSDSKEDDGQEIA

B7H4 = target: T4, B7H4 (human, UniProt Q7Z7D3); test: flow cytometry dot plots: 293 cells transfected with a B7 family protein-EGFP (B7H4 on the sheet), hu56V2-Fc, anti-hIg-PE
T4 construct: full length on the cell membrane, C-terminal EGFP fusion; Named only by the column head on the sheet; also called human B7H4-EGFP on HEK293 cells
T4 sequence (membrane protein on transfected HEK293 cells, looked up): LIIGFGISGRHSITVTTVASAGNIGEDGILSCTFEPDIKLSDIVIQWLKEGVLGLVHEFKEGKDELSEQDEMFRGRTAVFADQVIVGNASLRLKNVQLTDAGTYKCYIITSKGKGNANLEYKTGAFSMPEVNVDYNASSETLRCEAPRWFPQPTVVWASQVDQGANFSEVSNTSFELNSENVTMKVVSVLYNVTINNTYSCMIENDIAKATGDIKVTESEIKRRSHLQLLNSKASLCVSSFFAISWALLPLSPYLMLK

[4] = target: T5, human PDL2-EGFP on HEK293 cells (human, UniProt Q9BQ51 20-273); test: flow cytometry dot plots: 293 cells transfected with PDL2-EGFP, hu56V2-Fc, anti-hIg-PE
T5 construct: whole, on cells; not shown: EGFP protein fused to the C-terminus
T5 sequence (looked up): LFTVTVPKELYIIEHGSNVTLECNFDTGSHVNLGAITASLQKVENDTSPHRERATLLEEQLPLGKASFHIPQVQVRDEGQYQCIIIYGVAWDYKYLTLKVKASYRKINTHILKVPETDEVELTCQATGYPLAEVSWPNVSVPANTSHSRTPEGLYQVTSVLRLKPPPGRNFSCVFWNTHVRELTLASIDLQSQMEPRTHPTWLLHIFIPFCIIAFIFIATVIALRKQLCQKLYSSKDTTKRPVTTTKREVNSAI

- IC50 [1]: 0.249 mg/L
- IC50 (biotinylated PDL1-muFc): 13.4 mg/L
- Kd [2]: 0.51 µM
- koff [2]: 0.0963 s⁻¹
- kon [2]: 189000 M⁻¹ s⁻¹
B1: hu56V1-Fcm1 (Fc fusion)
chain: QVQLVESGGGLVQPGGSLRLSCAASGKMSSRRCMAWFRQAPGKERERVAKLLTTSGSTYLADSVKGRFTISRDNSKNTVYLQMNSLRAEDTAVYYCAADSFEDPTCTLVTSSGAFQYWGQGTLVTVSS[sequence of human IgG1 Fc with C220S D265A P331G (EU numbers) not given]
notes: humanized VHH Hu56V1 fused to mutant human IgG1 Fc (Fc-m1); biotinylated in the FcRn assay

- Kd [2]: 0.51 µM
- koff [2]: 0.119 s⁻¹
- kon [2]: 234000 M⁻¹ s⁻¹
B2: hu56V2-Fcm1 (Fc fusion)
chain: B1 chain with K27F, M28T, S29F
notes: humanized VHH Hu56V2 fused to mutant human IgG1 Fc (Fc-m1); biotinylated in the FcRn assay

- binding result [3]: no binding
- binding result (B7H4): no binding
- binding result [4]: no binding
B3: hu56V2-Fc (Fc fusion)
chain: QVQLVESGGGLVQPGGSLRLSCAASGFTFSRRCMAWFRQAPGKERERVAKLLTTSGSTYLADSVKGRFTISRDNSKNTVYLQMNSLRAEDTAVYYCAADSFEDPTCTLVTSSGAFQYWGQGTLVTVSS[sequence of human IgG1 Fc not given]
notes: humanized VHH Hu56V2 fused to human IgG1 Fc; biotinylated in the FcRn assay; also called PDL1-hu56V2-Fc; KN035
